In article PMC4336329 (PLoS ONE, 2015):
Hit rate of the full screen: of about 310,000 compounds, about 2,200 (0.71%) showed an effect of 50% or more. Effects have a minus sign here. The list shows a part of the results.

Molecular target: human ether-à-go-go-related gene (hERG) potassium channel (human, UniProt Q12809)
Experiment: primary screen, population patch clamp on CHO cells stably expressing hERG

Sequence of human ether-à-go-go-related gene (hERG) potassium channel (Q12809 whole entry, looked up): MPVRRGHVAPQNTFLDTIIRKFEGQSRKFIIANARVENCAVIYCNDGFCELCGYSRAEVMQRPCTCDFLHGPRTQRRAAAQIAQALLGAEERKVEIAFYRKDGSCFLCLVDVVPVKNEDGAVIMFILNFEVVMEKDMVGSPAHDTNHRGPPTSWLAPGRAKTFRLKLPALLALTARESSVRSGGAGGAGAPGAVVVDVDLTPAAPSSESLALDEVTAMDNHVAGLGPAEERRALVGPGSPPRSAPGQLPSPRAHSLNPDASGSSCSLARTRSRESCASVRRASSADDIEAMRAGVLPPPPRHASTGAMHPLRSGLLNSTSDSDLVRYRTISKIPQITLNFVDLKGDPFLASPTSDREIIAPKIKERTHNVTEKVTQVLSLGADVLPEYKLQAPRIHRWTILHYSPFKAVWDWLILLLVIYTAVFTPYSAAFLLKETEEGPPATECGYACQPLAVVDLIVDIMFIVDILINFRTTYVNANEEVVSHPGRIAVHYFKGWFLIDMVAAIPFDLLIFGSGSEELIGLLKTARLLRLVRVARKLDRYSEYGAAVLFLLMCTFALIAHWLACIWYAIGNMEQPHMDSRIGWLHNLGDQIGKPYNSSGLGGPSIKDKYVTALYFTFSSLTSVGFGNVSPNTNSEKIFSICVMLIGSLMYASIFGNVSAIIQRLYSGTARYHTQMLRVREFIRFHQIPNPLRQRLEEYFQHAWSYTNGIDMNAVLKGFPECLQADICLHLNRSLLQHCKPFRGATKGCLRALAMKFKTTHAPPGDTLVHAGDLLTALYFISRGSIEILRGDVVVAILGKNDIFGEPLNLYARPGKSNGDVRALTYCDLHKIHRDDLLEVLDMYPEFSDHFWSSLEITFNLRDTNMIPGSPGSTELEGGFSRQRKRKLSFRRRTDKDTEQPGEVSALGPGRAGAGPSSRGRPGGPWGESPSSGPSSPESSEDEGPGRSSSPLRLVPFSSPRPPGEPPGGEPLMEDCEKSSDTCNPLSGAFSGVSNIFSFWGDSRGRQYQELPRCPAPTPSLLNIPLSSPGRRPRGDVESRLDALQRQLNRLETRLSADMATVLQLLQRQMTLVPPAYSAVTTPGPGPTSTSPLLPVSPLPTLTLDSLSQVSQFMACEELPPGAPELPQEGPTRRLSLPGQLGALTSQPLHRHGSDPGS

Row | SMILES | hERG current change (%, negative = inhibition) at 1uM
1 | O=C(CSc1nc2ccccc2s1)NNC(=O)Nc1ccc(Cl)c(Cl)c1 | 5.05%
2 | COc1cc(CCCN2CCNC[C@@H]2Cc2ccccc2)cc(OC)c1OC | 10.8%
3 | Cc1cccc(C(=O)NNC(=O)C(=O)NC(C)(C)C)c1 | 5.95%
4 | CCCNc1nc(Nc2ccc(C)c(Cl)c2)c2cnn(C)c2n1 | 16.1%
5 | COc1ccc(-c2cn(Cc3cccc(OC)c3)nn2)cc1 | 3.38%
6 | COc1ccc(NC(=O)C2C3C=CC4(O3)C2C(=O)N(CCCN2CCCC(C)C2)C4C(=O)NC2CCCCC2)cc1 (stereo not shown) | 17%
7 | Cc1cccc(NC(=O)CCNS(=O)(=O)c2cccc3nsnc23)c1 | 18.7%
8 | NC1=NC[C@H](CC2CCCCC2)N1CCc1cc(C(F)(F)F)cc(C(F)(F)F)c1 | 9.02%
9 | Cc1c([N+](=O)[O-])cc(C(=O)Oc2ccc(Br)cc2C(=S)N2CCCCC2)cc1[N+](=O)[O-] | 23.4%
10 | CCOc1ccc(OCC)c(-c2c(=O)n(OCc3ccccc3Br)c3ccccc3[n+]2[O-])c1 | 4.97%
11 | COc1ccc(OC)c(NC(=O)c2cccc(S(=O)(=O)N(Cc3ccccc3)c3ccccc3OC)c2)c1 | 5.17%
12 | N#Cc1ccc(S(=O)(=O)N2CCN(c3ncccn3)CC2)cc1 | 5.13%
13 | CCCc1nc(NCc2ccccc2)c(C#N)c2c1CCCC2 | 3.61%
14 | COc1ccc(C(=O)NCC(=O)N2CCN(c3ccc(Cl)cc3)CC2)cc1 | 13.6%
15 | Cc1nc(Nc2ccc3c(c2)OCCO3)c2nnn(Cc3ccccc3Cl)c2n1 | -3.08%
16 | O=C(NCc1ccco1)Nc1ccccc1Cl | -5.72%
17 | CCCN(CC(=O)Nc1ccccc1OC)C(=O)c1ccc(COc2ccccc2)o1 | 1.84%
18 | CN(C)C(CNC(=O)C1CCN(S(=O)(=O)c2ccccc2)CC1)c1ccccc1 (stereo not shown) | 7.94%
19 | Cc1cc(CSc2ccccc2)ccc1NC(=O)c1ccc(Cl)c([N+](=O)[O-])c1 | 11.6%
20 | Cc1ccc(S(=O)(=O)N2CCN(C(=O)COC(=O)CCc3ccccc3)CC2)c(C)c1 | 14.9%
21 | CCC1CCCCN1CC(=O)c1c(C)[nH]c2cc(C)ccc12 (stereo not shown) | -1.26%
22 | O=C(O)C1C2CCC(O2)C1C(=O)Nc1cccc(Cl)c1 (stereo not shown) | 5.9%
23 | CCN(CC)S(=O)(=O)c1ccc(NC(=O)COC(=O)CNS(=O)(=O)/C=C/c2ccccc2)cc1 | 3.26%
24 | COc1ccccc1N1CCN(c2cc(=O)n(-c3ccc(Cl)cc3)c(=O)[nH]2)CC1 | 20.9%
25 | CCC(=O)N1CCC2(CC1)Oc1ccc(Cl)cc1C(=O)C21CC(c2cccnc2)=NO1 (stereo not shown) | 12.6%
26 | CCc1ccc(NC(=O)C2CCN(S(=O)(=O)c3ccc4c(c3)NC(=O)CO4)CC2)cc1 | 15.5%
27 | O=C(COc1ccccc1)NC1CCN(Cc2ccccc2)CC1 | -8.39%
28 | CCn1c(C(=O)N2CCC(C(=O)N3CCN(c4ccccn4)CC3)CC2)cc2sccc21 | -24.3%

Row | SMILES | hERG current change (%, negative = inhibition) at 1uM
29 | CCOC(=O)c1ccc(N2C(=O)C=CC2=O)cc1 | -8.86%
30 | O=C(CC1NCCNC1=O)Nc1ccc([N+](=O)[O-])cc1 (stereo not shown) | 9.61%
31 | O=C(NC1CC1)C1=C[C@@H](c2csc3ccccc23)C[C@@H](OCCCCO)O1 | 0.813%
32 | CCN(CC(=O)NC1CC1)S(=O)(=O)c1ccc(C)cc1 | 5.39%
33 | COc1ccc(N2C(=O)CCC2(C#N)c2ccc(Br)cc2)cc1 (stereo not shown) | 8.73%
34 | CSc1ccc(C2NC(=O)CCC2[N+](=O)[O-])cc1 (stereo not shown) | -1.11%
35 | CC(=N\NC(=O)c1ccccc1)/C(=N/O)C(=O)Nc1ccccc1 | 13.7%
36 | Cn1c(N)c(C(=O)COC(=O)CCOc2ccc(C(C)(C)C)cc2)c(=O)n(C)c1=O | 10.6%
37 | CN(C)/C=C1\SC(=S)N(c2ccc(Br)cc2)C1=O | 7.96%
38 | CC(C)(C)c1ccc(-c2nnc(SCC(=O)c3ccc4c(c3)OCCO4)o2)cc1 | 7.2%
39 | C[C@]1(C(=O)O)C=C[C@@H](Cc2ccccc2)N1C(=O)c1ccccc1 | 8.82%
40 | COc1cc(OC)cc(C(=O)NCC(=O)Nc2ccc(C)c(Cl)c2)c1 | 12.6%
41 | S=C(Nc1cccc(Cl)c1)Nc1cccc2cnccc12 | 4.76%
42 | Cc1ccc2c(c1)CN1CN2Cc2cc(C)ccc21 | 1.52%
43 | C[C@@H]([C@@H](O)c1ccccc1)N(C)C(=O)Cc1ccccc1 | 7.58%
44 | Cc1ccccc1OCCCC(=O)NCc1ccco1 | 1.42%
45 | CC(=O)Nc1cc(N=Cc2ccc(O)cc2O)c(Cl)cc1Cl | 9.03%
46 | C=CCn1c(SCC(=O)NCC(c2ccccc2)N(C)C)nnc1C1CCCCC1 (stereo not shown) | 13%
47 | Cc1ccc(C(=O)N/C(=C\c2ccc(F)cc2)C(=O)NCc2ccncc2)cc1 | -81.2%
48 | O=C(/C=C/c1ccccc1O)c1ccc(Cl)cc1 | 9.95%
49 | COCCn1cc(C(=O)c2ccccc2OCC(=O)Nc2cc(C)on2)cc(C#N)c1=O | 6.23%
50 | N#C/C(=C\c1cccnc1)C(=O)Nc1ccccc1[N+](=O)[O-] | 13.7%
51 | CSCCNC(=O)c1ccc(C(C)(C)C)cc1 | 2.85%
52 | CCc1ccccc1NC(=O)CCCN1C(=O)C2CC=CCC2C1=O (stereo not shown) | 13.2%
53 | O=C(Nc1ccc2c(c1)CCC2)c1ccc(Br)o1 | 4.59%
54 | Cc1ccc(F)cc1NC(=O)N1CCN(c2ccnc3cc(Cl)ccc23)CC1 | -31.8%
55 | O=C(Nc1cccc(C(=O)O)c1)/C(=C\c1ccccc1Cl)NC(=O)c1ccco1 | 7.26%
